The values that follow come from the BET-seq Pho4 binding data (Le et al. 2018).

The other results are listed elsewhere or left out. These are noisy estimates, calculated here from bound and input reads.

The assay deals with T1, Pho4 (S. cerevisiae) (UniProt P07270).
T1 sequence: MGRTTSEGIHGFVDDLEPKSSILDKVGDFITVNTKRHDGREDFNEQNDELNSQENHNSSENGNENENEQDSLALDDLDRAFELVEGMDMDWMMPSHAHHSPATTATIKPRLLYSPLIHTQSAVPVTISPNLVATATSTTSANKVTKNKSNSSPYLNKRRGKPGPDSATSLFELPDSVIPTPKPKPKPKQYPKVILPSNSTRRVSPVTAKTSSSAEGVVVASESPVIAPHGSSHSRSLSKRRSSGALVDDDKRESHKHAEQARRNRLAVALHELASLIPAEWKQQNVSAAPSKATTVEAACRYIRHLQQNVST
The assay can be described thus: relative binding free energy (BET-seq); higher = weaker binding. To be noted: reference: library average.
On to ATAGTCACGTGTGGTC, for which the “relative binding free energy” value is 0.11 kcal/mol. For the sequence GGGGGCACGTGGCAAA, the “relative binding free energy” value is -0.19 kcal/mol. GAGTGCACGTGCGTTG: the “relative binding free energy” value came to 0.08 kcal/mol. Next, TCTTTCACGTGAGGAA: 0.42 kcal/mol; CATTGCACGTGGTATA: -0.04 kcal/mol. In the case of TTCTACACGTGAAGTG, the “relative binding free energy” value is 0.19 kcal/mol. For TATGTCACGTGGGTTA, the “relative binding free energy” value is 0.02 kcal/mol.

As for TCTGGCACGTGGTGTC, the “relative binding free energy” value was -0.07 kcal/mol. Next, CGGAACACGTGGTCGG: -0.09 kcal/mol. Next, GGGCGCACGTGCGGTC: -0.02 kcal/mol; GACATCACGTGATGGG: 0.19 kcal/mol. Regarding TGACTCACGTGGTATG, the “relative binding free energy” value was determined as 0.26 kcal/mol. Next, ATGATCACGTGGTTGT: 0.17 kcal/mol. Next, GTGGCCACGTGTAAGG: 0.18 kcal/mol; TGTGGCACGTGTCGAA: -0.25 kcal/mol. For GATGTCACGTGGGTCT, the “relative binding free energy” value came to 0.08 kcal/mol.

As for AGGAACACGTGACGGT, the “relative binding free energy” value stood at 0.35 kcal/mol. Take GTATGCACGTGAAGTG: the “relative binding free energy” value worked out at 0.23 kcal/mol. Next, TTAGGCACGTGGTGGA: -0.06 kcal/mol; GGTTGCACGTGCCGTG: 0.02 kcal/mol; TAGTACACGTGTAAAG: 0.27 kcal/mol.

As for GAGGCCACGTGTTTTG, the “relative binding free energy” value was found to be 0.16 kcal/mol.

CTTGTCACGTGTCTAT: the “relative binding free energy” value turned out to be 0.12 kcal/mol.

For GGGTCCACGTGATTGG, the “relative binding free energy” value worked out at 0.24 kcal/mol. Next, GGGAACACGTGATATG: 0.24 kcal/mol. Take GGTGACACGTGCGTTA: the “relative binding free energy” value is -0.1 kcal/mol. The figure for CTTGTCACGTGGTACT is 0.06 kcal/mol; for TTCAACACGTGGTATG it is -0.03 kcal/mol. Turning to ATATTCACGTGTAGGT, the “relative binding free energy” value is 0.16 kcal/mol.

On to TGTCTCACGTGCGGTG, for which the “relative binding free energy” value was -0.04 kcal/mol. On to GTGTGCACGTGGATAT, for which the “relative binding free energy” value is -0.12 kcal/mol.

For GGGAGCACGTGTCATG, the “relative binding free energy” value is -0.11 kcal/mol. Take AAAAACACGTGGGGTG: the “relative binding free energy” value was -0.03 kcal/mol. The figure for AATTTCACGTGCATGA is 0.33 kcal/mol. On to AATTACACGTGTGTTC, for which the “relative binding free energy” value was found to be 0.11 kcal/mol. For GCGTGCACGTGTATAT, the “relative binding free energy” value amounted to 0.05 kcal/mol. The figure for ATGGTCACGTGTTAAT is 0.04 kcal/mol; for GGTTTCACGTGTTACG it is 0.17 kcal/mol.

As to TACCGCACGTGTTGGG, the “relative binding free energy” value was -0.05 kcal/mol. Regarding AAGGTCACGTGGAAAG, the “relative binding free energy” value is 0.21 kcal/mol.

For the sequence CGTTGCACGTGTTAGT, the “relative binding free energy” value was -0.09 kcal/mol. On to TGGTGCACGTGAAGAG, for which the “relative binding free energy” value worked out at 0.15 kcal/mol. Next, TTCGGCACGTGAGTTG: 0.1 kcal/mol; TTATACACGTGTTGCA: -0.08 kcal/mol. The figure for TATATCACGTGGTTTG is 0.11 kcal/mol; for CGTGGCACGTGCGTTT it is -0.24 kcal/mol; for GATTGCACGTGGTCTT it is -0.1 kcal/mol. Next, AGGCACACGTGAGGTT: 0.31 kcal/mol; ATTGACACGTGGGCCT: -0.09 kcal/mol; AGTACCACGTGGTTGG: -0.18 kcal/mol. As to GTATGCACGTGGGCCG, the “relative binding free energy” value is -0.26 kcal/mol.

Take GTCGTCACGTGTAGGT: the “relative binding free energy” value came to 0.02 kcal/mol. Next, TAGGGCACGTGGCGTA: -0.25 kcal/mol; GTTTTCACGTGTCTGA: 0.27 kcal/mol. Next, CGAGGCACGTGGTGTC: -0.11 kcal/mol; GGGTGCACGTGCGAAG: -0.02 kcal/mol; GTGTACACGTGGCTTT: 0.04 kcal/mol. With ATAAGCACGTGAGTTA, the “relative binding free energy” value was 0.17 kcal/mol. The figure for ATACTCACGTGGTTGT is 0.08 kcal/mol; for CTATTCACGTGGTGGG it is 0.13 kcal/mol. Next, AGTAGCACGTGGTAGC: -0.05 kcal/mol; GGGGACACGTGTTCTG: 0.04 kcal/mol; AGATACACGTGTGATG: 0.11 kcal/mol. Next, TGCGTCACGTGTGATA: 0.11 kcal/mol; TAAGGCACGTGGTCTA: -0.13 kcal/mol; TTGGCCACGTGTGTTT: 0.03 kcal/mol. On to TCAATCACGTGTGTGA, for which the “relative binding free energy” value amounted to 0.06 kcal/mol. Consider ATTAGCACGTGGGTGC, for which the “relative binding free energy” value is -0.15 kcal/mol. With TTTGGCACGTGGCATT, the “relative binding free energy” value is -0.16 kcal/mol.

As to TACGTCACGTGAGTTT, the “relative binding free energy” value came out at 0.34 kcal/mol. The figure for GGGGCCACGTGGGTCT is -0.22 kcal/mol; for GGCGTCACGTGTGTCG it is 0.14 kcal/mol; for TGTGACACGTGATTCT it is 0.08 kcal/mol.

As for AGTCGCACGTGTGCGG, the “relative binding free energy” value was -0.09 kcal/mol. With GTTTGCACGTGGGATT, the “relative binding free energy” value was found to be 0.09 kcal/mol. Consider ATTCGCACGTGTTGCG, for which the “relative binding free energy” value turned out to be 0.04 kcal/mol. On to GTTGTCACGTGCATGA, for which the “relative binding free energy” value is -0.01 kcal/mol. The figure for AGTTTCACGTGCGGGT is 0.34 kcal/mol; for GCGGCCACGTGGGCGG it is -0.18 kcal/mol. Consider ATTGACACGTGGTGAG, for which the “relative binding free energy” value is 0.07 kcal/mol. For TAAAGCACGTGTTAGG, the “relative binding free energy” value was -0.12 kcal/mol. Next, GATAACACGTGGTTTA: 0.04 kcal/mol; TTAGACACGTGTTGTT: 0.08 kcal/mol.

Turning to TGGCGCACGTGTCATG, the “relative binding free energy” value was -0.05 kcal/mol. The figure for ATAGGCACGTGTTGTC is -0.01 kcal/mol. Next, AGGATCACGTGATGGG: 0.12 kcal/mol; AGGATCACGTGGGTAG: 0.03 kcal/mol; GGGGCCACGTGTAAGT: -0.14 kcal/mol.

As to GGTATCACGTGTTGAT, the “relative binding free energy” value was 0.26 kcal/mol. Next, AGGTTCACGTGCATAG: 0.17 kcal/mol; TATGGCACGTGTCTTA: -0.14 kcal/mol. With AGCATCACGTGGGCTG, the “relative binding free energy” value is 0 kcal/mol. With GTATGCACGTGGCGGC, the “relative binding free energy” value stood at 0.08 kcal/mol. Take TTTTACACGTGATGGA: the “relative binding free energy” value is 0.18 kcal/mol. Next, TTGGTCACGTGCAATG: 0.05 kcal/mol.

On to AAGCACACGTGGGTTT, for which the “relative binding free energy” value stood at 0.03 kcal/mol.

Consider TACTGCACGTGTGGGT, for which the “relative binding free energy” value is -0.01 kcal/mol. Next, TCGGGCACGTGGAGGA: -0.05 kcal/mol; GTTGCCACGTGTTTTT: 0 kcal/mol. Next, AGTGGCACGTGGGCGG: -0.22 kcal/mol; GGGATCACGTGGTGTC: 0.08 kcal/mol; TAAGTCACGTGGCGGT: 0.04 kcal/mol. For TGGTTCACGTGGATAA, the “relative binding free energy” value was found to be 0.3 kcal/mol. Next, TTTATCACGTGCCGTG: 0.14 kcal/mol; GTTTTCACGTGTTAAA: 0.22 kcal/mol; CTTGGCACGTGTTTCG: -0.05 kcal/mol.

On to GGTCTCACGTGTGGTA, for which the “relative binding free energy” value came to 0.26 kcal/mol. For ACTGGCACGTGGGTCG, the “relative binding free energy” value was -0.14 kcal/mol. Next, GGTGGCACGTGTCTTT: 0.04 kcal/mol; TAATACACGTGCAGTT: 0.15 kcal/mol; TTTTACACGTGGCTTT: -0.06 kcal/mol. Next, ATTATCACGTGAGTCG: 0.29 kcal/mol.

As for GGGAGCACGTGTGGCT, the “relative binding free energy” value is -0.12 kcal/mol. Next, GGTGTCACGTGCATTT: 0.22 kcal/mol; AATAGCACGTGAAGGT: 0.2 kcal/mol.
